Here are results for four molecules from patent US20240166765A1, “INFLAMMATORY DISEASE TREATMENT USING ANTI-TISSUE FACTOR ANTIBODIES” (Iconic Therapeutics LLC, priority 2020, published 2024).

For series [1], the system named is TF-positive HPAF-II cells. Briefly: Cytotoxicity assay of ADCs, HPAF-II cells. Type of series: cell-based, human. Particulars: Primary ADC, Continuous treatment, FIG. 22E.
Series [2] concerns TF-positive Macaca mulatta RF/6A cells. Briefly: Cell-based binding assay, RF/6A cells.
A further series has as its target T1, Expi293-derived TF-His (Homo sapiens, UniProt P13726).
T1 construct: Plates coated with Expi293- or E. coli-derived TF-His; made in house; host or cells: Expi293
Briefly: Protein ELISA, Expi293-derived TF. Format: binding. Particulars: Table 43. On the technique in general: In an ELISA, binding on a coated surface is turned into a signal by an enzyme label.

For the next series, the system named is MDA-MB-231 cells. Briefly: Cytotoxicity assay of ADCs, MDA-MB-231 cells. Format: cell-based, human. Particulars: Primary ADC, Continuous treatment, FIG. 22D.
The next series addresses T2, TF:FVIIa (Homo sapiens, UniProt P13726).
T2 construct: host or cells: MDA-MB-231
Briefly: FXa conversion assay on MDA-MB-231 cells. Type of series: cell-based. The settings on record: as summarised in Example 23. Here is the method: To evaluate the ability of TF:FVIIa to convert FX into FXa in the presence of human antibodies against TF, 5×10^4 MDA-MB-231 cells (ATCC, Manassas, VA, USA) were plated into tissue culture-treated black 96-well plates (Greiner Bio-One, Monroe, NC, USA). […] Upon reconstitution of the binary TF:FVIIa complex with a final concentration of 20 nM of FVIIa, cells were incubated for 5 min at 37° C.
Briefly, 5×10^4 MDA-MB-231 cells (ATCC, Manassas, VA, USA) were plated into tissue culture-treated black 96-well plates (Greiner Bio-One, Monroe, NC, USA) and cultured overnight. […] Upon reconstitution of the binary TF:FVIIa complex with a final concentration of 20 nM of FVIIa, cells were incubated for 5 min at 37° C.

In series [3] the test system is TF-positive A431 cells. Briefly: Cell viability / internalization assay with anti-human Fc MMAF secondary. Type of series: cell-based. The settings on record: Secondary ADC (antibody with anti-human Fc Fab:MMAF), Continuous treatment, FIG. 18B.
The target in another series is T3, E. coli-derived TF-His (Homo sapiens, UniProt P13726).
T3 construct: made in house; host or cells: E. coli
T3 sequence (P13726 33-251 limits assumed): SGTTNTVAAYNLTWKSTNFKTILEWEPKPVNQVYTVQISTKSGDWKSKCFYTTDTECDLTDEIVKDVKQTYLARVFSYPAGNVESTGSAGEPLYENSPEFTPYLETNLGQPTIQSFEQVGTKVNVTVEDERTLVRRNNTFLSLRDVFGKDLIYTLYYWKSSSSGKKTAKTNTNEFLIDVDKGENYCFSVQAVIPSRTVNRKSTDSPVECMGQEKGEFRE
Briefly: Protein ELISA, E. coli-derived TF. Type of series: binding. Particulars: Table 43.

The target in another series is T4, human TF (Homo sapiens, UniProt P13726).
T4 construct: made in house; host or cells: Expi293
T4 sequence (P13726 with tags, fused parts or gaps limits assumed): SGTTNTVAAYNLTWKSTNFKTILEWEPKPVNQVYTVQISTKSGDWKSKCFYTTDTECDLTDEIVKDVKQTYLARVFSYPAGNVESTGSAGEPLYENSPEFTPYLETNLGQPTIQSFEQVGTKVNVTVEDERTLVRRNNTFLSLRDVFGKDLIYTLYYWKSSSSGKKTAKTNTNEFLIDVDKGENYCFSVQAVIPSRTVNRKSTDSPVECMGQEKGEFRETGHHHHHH
Briefly: ForteBio (Octet) binding affinity, human TF. (In general: BLI is a label-free optical method that tracks binding on a fibre tip over time.)

A further series addresses cynomolgus TF (TF-His). Briefly: Biacore binding affinity, cynomolgus TF. On the set-up: species or system cynomolgus monkey. (SPR reads the build-up and loss of mass on a sensor chip optically.)
Another series deals with T5, human TF (TF-His) (Homo sapiens, UniProt P13726).
T5 construct: human, cynomolgus, or mouse TF ECD-His6 (TF-His); made in house; host or cells: Expi293
T5 sequence (P13726 with tags, fused parts or gaps): as the sequence (P13726 with tags, fused parts or gaps limits assumed) above
Briefly: Biacore binding affinity, human TF.

Series [4] deals with TF-positive A431 cells. Briefly: Cytotoxicity assay of ADCs, A431 cells. The settings on record: Primary ADC. Type of series: cell-based, human. The procedure:
To evaluate cytotoxicity of ADCs, TF-positive A431 and HPAF-II cells were plated in 384-well plates (Greiner Bio-One, Monroe, NC, USA) at 4×10^3 cells per well in 40 μL of media. Anti-TF antibodies conjugated to MC-vc-PAB-MMAE were serially diluted starting at 5 nM. Plates were incubated for 3 to 4 days, followed by lysis in CellTiter-Glo (CTG) assay reagent (Promega, Madison, WI, USA). CTG luminescence was measured on an Envision plate reader and the mean and standard deviation of 4 replicates were graphed in Prism.
To evaluate ADC cytotoxicity, A431 cells were plated in 384-well plates (Greiner Bio-One). Anti-TF antibodies conjugated to MC-vc-PAB-MMAE were serially diluted as shown. The TF-specific ADCs were added to A431 cells, with either a 72 h incubation or a 4 h incubation followed by removal of excess ADC and culture for another 68 h. A431 cells were lysed in CTG assay reagent after treatment. CTG luminescence was measured and the mean and standard deviation of 4 replicates graphed in Prism.

For a further series, the target named is cynomolgus TF. Briefly: ForteBio (Octet) binding affinity, cynomolgus TF. Also on record: species or system cynomolgus monkey.
A further series concerns the target T6, mouse TF (Mus musculus, UniProt P20352).
T6 construct: made in house; host or cells: Expi293
Briefly: ForteBio (Octet) binding affinity, mouse TF. Particulars: KD for mouse antigen no greater than 20 times KD for human antigen.

Another series relates to pig TF (TF-His). Briefly: Biacore binding affinity, pig TF. The settings on record: Example 22.
Where [5] appears, read: 4 hr, followed by washout, FIG. 20B.
The mark [6] stands for this setting: 4 hr, followed by washout, FIG. 21A.

T2 sequence (P13726 33-295): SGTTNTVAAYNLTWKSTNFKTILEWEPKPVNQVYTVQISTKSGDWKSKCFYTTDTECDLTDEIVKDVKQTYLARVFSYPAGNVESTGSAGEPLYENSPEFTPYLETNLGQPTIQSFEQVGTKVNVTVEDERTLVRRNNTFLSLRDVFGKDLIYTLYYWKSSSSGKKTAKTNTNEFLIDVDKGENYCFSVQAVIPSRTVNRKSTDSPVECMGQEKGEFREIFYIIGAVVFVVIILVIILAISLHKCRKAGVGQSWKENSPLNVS
T6 sequence (P20352 with tags, fused parts or gaps limits assumed): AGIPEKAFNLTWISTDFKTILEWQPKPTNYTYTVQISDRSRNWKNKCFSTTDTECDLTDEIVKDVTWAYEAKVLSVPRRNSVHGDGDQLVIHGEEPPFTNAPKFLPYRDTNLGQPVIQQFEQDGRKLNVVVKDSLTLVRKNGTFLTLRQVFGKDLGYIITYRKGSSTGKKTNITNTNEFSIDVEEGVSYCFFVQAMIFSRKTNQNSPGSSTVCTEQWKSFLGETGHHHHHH
T1 sequence (P13726 with tags, fused parts or gaps): as the sequence (P13726 with tags, fused parts or gaps limits assumed) above

B1: 43D7 (antibody)
heavy: QVQLQQWGAGLLKPSETLSLTCAVYGGSLSGYYWSWIRQPPGKGLEWIGEIGASGSTRYNPSLKSRVTISVDTSKNQFSLKLSSVTAADTAVYYCARDTPYYYEGGYYYYMDVWGKGTTVTVSSASTKGPSVFPLAPSSKSTSGGTAALGCLVKDYFPEPVTVSWNSGALTSGVHTFPAVLQSSGLYSLSSVVTVPSSSLGTQTYICNVNHKPSNTKVDKRV[sequence of human IgG1 Fc omitted]
light: EIVLTQSPGTLSLSPGERATLSCRASDSVDSSYLAWYQQKPGQAPRLLIYGAFSRANGIPDRFSGSGSGTDFTLTISRLEPEDFAVYYCQQAGVVPYTFGGGTKVEIKRTVAAPSVFIFPPSDEQLKSGTASVVCLLNNFYPREAKVQWKVDNALQSGNSQESVTEQDSKDSTYSLSSTLTLSKADYEKHKVYACEVTHQGLSSPVTKSFNRGEC
A word on the IC50: it is the point on the concentration scale where inhibition reaches its midpoint. The EC50 is the concentration that produces a half-maximal response. For orientation: Kd means the concentration at which binding is half-saturated. As for B1, the IC50 in [1] is 0.05 nM; in the series with MDA-MB-231 cells, 0.14 nM; in the series on TF-positive A431 cells [3] it was 0.1 nM; in the series on TF-positive A431 cells [4] (setting [5]), 0.28 nM; with TF-positive A431 cells [4] (setting [6]), 0.14 nM; in the series on TF-positive A431 cells [4] (Continuous treatment, FIG. 20A), 0.06 nM. Further, the values for the EC50 (in [2]; with Expi293-derived TF-His; with E. coli-derived TF-His) were 0.41 nM, 0.71 nM and 0.43 nM, respectively. In the series with TF:FVIIa, the “effect on FX conversion” value is reported as “does not substantially affect FX conversion”. Besides, the Kd came to 1.02 nM in the series with human TF, 0.12 nM at cynomolgus TF (TF-His), 0.06 nM with human TF (TF-His) and 1.11 nM at cynomolgus TF.

B2: 25G1 (antibody)
heavy: QVQLVQSGAEVKKPGASVKVSCKASGYTFRSYGISWVRQAPGQGLEWMGWVAPYSGNTNYAQKLQGRVTMTTDTSTSTAYMELRSLRSDDTAVYYCARDAGTYSPYGYGMDVWGQGTTVTVSSASTKGPSVFPLAPSSKSTSGGTAALGCLVKDYFPEPVTVSWNSGALTSGVHTFPAVLQSSGLYSLSSVVTVPSSSLGTQTYICNVNHKPSNTKVDKRV[sequence of human IgG1 Fc omitted]
light: DIQMTQSPSTLSASVGDRVTITCRASHSIDSWLAWYQQKPGKAPKLLIYKASYLESGVPSRFSGSGSGTEFTLTISSLQPDDFATYYCQLFQSLPPFTFGGGTKVEIKRTVAAPSVFIFPPSDEQLKSGTASVVCLLNNFYPREAKVQWKVDNALQSGNSQESVTEQDSKDSTYSLSSTLTLSKADYEKHKVYACEVTHQGLSSPVTKSFNRGEC
On to B2, for which the IC50 worked out at 0.04 nM in [1]; 0.09 nM in the series with MDA-MB-231 cells; 0.08 nM in the series with TF-positive A431 cells [3]; 0.19 nM in the series on TF-positive A431 cells [4] (setting [5]); 0.1 nM with TF-positive A431 cells [4] (setting [6]); 0.06 nM with TF-positive A431 cells [4] (Continuous treatment, FIG. 20A). Further, in the series with TF:FVIIa, the “effect on FX conversion” value is “does not substantially affect FX conversion”. In the series with mouse TF, the “cross-reactive with mTF” value is recorded as “cross-reactive”.

B3: 25A3 (antibody)
heavy: QVQLVQSGAEVKKPGASVKVSCKASGYTFDVYGISWVRQAPGQGLEWMGWIAPYSGNTNYAQKLQGRVTMTTDTSTSTAYMELRSLRSDDTAVYYCARDAGTYSPFGYGMDVWGQGTTVTVSSASTKGPSVFPLAPSSKSTSGGTAALGCLVKDYFPEPVTVSWNSGALTSGVHTFPAVLQSSGLYSLSSVVTVPSSSLGTQTYICNVNHKPSNTKVDKRV[sequence of human IgG1 Fc omitted]
light: DIQMTQSPSTLSASVGDRVTITCQASQSINNWLAWYQQKPGKAPKLLIYKAYNLESGVPSRFSGSGSGTEFTLTISSLQPDDFATYYCQLFQSLPPFTFGGGTKVEIKRTVAAPSVFIFPPSDEQLKSGTASVVCLLNNFYPREAKVQWKVDNALQSGNSQESVTEQDSKDSTYSLSSTLTLSKADYEKHKVYACEVTHQGLSSPVTKSFNRGEC
In the case of B3, the IC50 in [1] was 0.05 nM; in the series with MDA-MB-231 cells, 0.11 nM; in the series on TF-positive A431 cells [3], 0.09 nM; in the series on TF-positive A431 cells [4] (setting [5]), 0.19 nM; in the series on TF-positive A431 cells [4] (setting [6]), 0.12 nM; with TF-positive A431 cells [4] (Continuous treatment, FIG. 20A), 0.07 nM. In addition, the “effect on FX conversion” value in the series with TF:FVIIa is recorded as “does not substantially affect FX conversion”.

B4: 25G9: human anti-TF antibody, group 25; sequences in Tables 13 and 22 (antibody)
heavy: QVQLVQSGAEVKKPGASVKVSCKASGYTFRSYGISWVRQAPGQGLEWMGWVAPYSGNTNYAQKLQGRVTMTTDTSTSTAYMELRSLRSDDTAVYYCARDAGTYSPYGYGMDVWGQGTTVTVSSASTKGPSVFPLAPSSKSTSGGTAALGCLVKDYFPEPVTVSWNSGALTSGVHTFPAVLQSSGLYSLSSVVTVPSSSLGTQTYICNVNHKPSNTKVDKRV[sequence of human IgG1 Fc omitted]
light: DIQMTQSPSTLSASVGDRVTITCQASQSIDSWLAWYQQKPGKAPKLLIYSASYLESGVPSRFSGSGSGTEFTLTISSLQPDDFATYYCQRFQSLPPFTFGGGTKVEIKRTVAAPSVFIFPPSDEQLKSGTASVVCLLNNFYPREAKVQWKVDNALQSGNSQESVTEQDSKDSTYSLSSTLTLSKADYEKHKVYACEVTHQGLSSPVTKSFNRGEC
B4: in the series with mouse TF, the “cross-reactive with mTF” value is recorded as “cross-reactive”. Also, in the series on pig TF (TF-His), the “binding activity and cross-reactivity to pig TF” value was “exhibit binding activity and cross-reactivity”.
